Experiment [1] has as its target T1, LIM and SH3 Protein 1 (LASP1), endogenous (human (endogenous in MDA-MB-231 variants 231S and Bone-Un)) (UniProt Q14847).
T1 sequence: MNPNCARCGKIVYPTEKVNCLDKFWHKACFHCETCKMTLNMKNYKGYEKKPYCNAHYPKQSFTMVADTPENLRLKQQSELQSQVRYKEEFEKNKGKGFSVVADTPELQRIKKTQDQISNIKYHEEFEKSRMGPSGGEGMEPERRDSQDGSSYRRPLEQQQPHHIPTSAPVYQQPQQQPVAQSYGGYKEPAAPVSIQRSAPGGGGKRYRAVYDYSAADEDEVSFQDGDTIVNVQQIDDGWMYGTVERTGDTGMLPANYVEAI
In words: co-IP; 231S cells serum starved 1 h, stimulated with 20 nM CXCL12 for 0–60 min; 1 mg lysate in Co-IP buffer, immunoprecipitated with mouse anti-LASP1 and protein G Dynabeads, 2 h at 4 °C; blotted for Ago2 and LASP1.

The chains behind the UniProt entries cited, without tags or fusion partners.
UniProt Q9UKV8: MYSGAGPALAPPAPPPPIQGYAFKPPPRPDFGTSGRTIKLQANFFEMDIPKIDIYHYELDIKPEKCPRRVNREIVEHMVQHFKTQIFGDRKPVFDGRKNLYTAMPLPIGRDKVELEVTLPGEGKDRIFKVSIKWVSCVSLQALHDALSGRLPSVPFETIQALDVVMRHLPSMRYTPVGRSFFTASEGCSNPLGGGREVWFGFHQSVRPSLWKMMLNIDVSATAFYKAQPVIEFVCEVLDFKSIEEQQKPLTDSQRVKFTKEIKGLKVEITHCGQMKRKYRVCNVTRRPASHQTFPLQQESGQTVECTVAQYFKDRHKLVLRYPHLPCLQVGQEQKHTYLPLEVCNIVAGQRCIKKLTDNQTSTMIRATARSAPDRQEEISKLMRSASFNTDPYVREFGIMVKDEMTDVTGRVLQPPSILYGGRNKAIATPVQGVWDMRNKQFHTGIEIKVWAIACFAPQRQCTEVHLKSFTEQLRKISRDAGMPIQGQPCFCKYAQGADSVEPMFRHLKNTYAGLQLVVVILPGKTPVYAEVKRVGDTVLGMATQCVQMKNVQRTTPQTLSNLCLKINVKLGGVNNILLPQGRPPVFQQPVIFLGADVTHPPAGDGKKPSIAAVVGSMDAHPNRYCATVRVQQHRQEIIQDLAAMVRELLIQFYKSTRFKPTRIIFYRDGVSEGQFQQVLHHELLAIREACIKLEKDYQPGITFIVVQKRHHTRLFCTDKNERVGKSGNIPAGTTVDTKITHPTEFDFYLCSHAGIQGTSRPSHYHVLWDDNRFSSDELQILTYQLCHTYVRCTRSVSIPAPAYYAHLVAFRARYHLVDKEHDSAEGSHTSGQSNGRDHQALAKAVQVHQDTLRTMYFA

For experiment [2], the target named is T2, GST-LASP1 LIM domain (residues 1–60) (human) (UniProt Q14847).
T2 sequence: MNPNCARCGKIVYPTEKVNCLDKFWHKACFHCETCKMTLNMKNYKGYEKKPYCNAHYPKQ
In words: pull-down; 1.5 nmol GST-LASP1 or its domains on glutathione-agarose beads with 1 mg of 231S total protein lysate, 2 h at 4 °C, washed with lysis buffer (100 mM NaCl, 50 mM Tris pH 8.0, 0.1% deoxycholate, 0.1% IGEPAL CA-630, 5 mM EDTA); Western blot; only the target purified. A general note: In western blotting, separated proteins are transferred to a membrane and probed.

Experiment [3] deals with T3, GST-LASP1 (full length LIM and SH3 Protein 1, residues 1–261) (human) (UniProt Q14847).
T3 sequence: T1 sequence
Described as above.

For experiment [4], the target named is T4, GST-LASP1 SH3 domain (residues 200–261) (human) (UniProt Q14847).
T4 sequence: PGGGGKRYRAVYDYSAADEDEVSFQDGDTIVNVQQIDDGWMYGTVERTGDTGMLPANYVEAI
The description is as above.

Experiment [5] deals with T5, GST-LASP1 S146D/Y171D (human) (UniProt Q14847).
T5 sequence: T1 sequence with S146D, Y171D
In words: pull-down; 1.5 nmol GST-LASP1 phospho-mutants on glutathione-agarose beads with 1 mg of Bone-Un LASP1 knockout total lysate (Co-IP buffer), 2 h at 4 °C; Western blot for Ago2; only the target purified.

The target of experiment [6] is T6, GST-LASP1 S146D/Y171F (human) (UniProt Q14847).
T6 sequence: T1 sequence with S146D, Y171F
Described as above.

Experiment [7] addresses T1, LIM and SH3 Protein 1 (LASP1), endogenous (human (endogenous in MDA-MB-231 variants 231S and Bone-Un)). In words: proximity ligation; Duolink in situ, rabbit anti-Ago2 and mouse anti-LASP1, fixed Bone-Un cells; unstimulated, 20 nM CXCL12 for 30 min, or CXCL12 after 100 nM AMD3465.
The target in the next experiment is T7, GST-LASP1 Y171D (human) (UniProt Q14847).
T7 sequence: T1 sequence with Y171D
In words: pull-down; direct binding: 1.5 nmol GST-LASP1, its domains or its phospho-mutants on glutathione-agarose beads with 100–200 ng of purified recombinant Ago2, 2 h at 4 °C, washed with lysis buffer; Western blot; both purified.

The target in experiment [8] is T5, GST-LASP1 S146D/Y171D (human). The experiment is described as above.
The target in experiment [9] is T6, GST-LASP1 S146D/Y171F (human). The experiment is described as above.

Numbering of substitutions follows the chain as printed. Results are given in words; binding and its absence hold for the method and conditions named. For some of these results: Binding seen in cells or lysates may run through a third protein. Some results given as binding are weak or reduced against the parent protein; the word gives no strength. For some of these results: Sequences can lack the tags named with a protein.

Take “argonaute 2 (Ago2), endogenous (from UniProt Q9UKV8 1-859)”: the binding result in experiment [1] is on record as “binds”; in [2], “binds”; in experiment [3], “binds”; in experiment [4], “binds”; in experiment [5] it was “binds”; in experiment [6], “binds weakly”. The binding entry in experiment [7] was “binds”.
With “purified recombinant Ago2 (from UniProt Q9UKV8 1-859)”, the binding entry in the experiment with GST-LASP1 Y171D (human) was “binds”; in experiment [8] it was “binds”; in [9], “binds weakly”.

The values are drawn from publication PMC7564666.
